Experimental data as given in PubChem BioAssay AID1159614 (National Center for Advancing Translational Sciences (NCATS), 2016).
Among all 45,000 compounds or so, about 65 (0.1%) were called active. Calls come from the whole dose curve; as a rule, active = well fitted activation curve with a large enough effect; inconclusive = small, poorly fitted or top-dose-only effect; inactive = no such curve, though single readings can be large or run the other way. The list shows a part of the results.

molecular target: Galactocerebrosidase (Homo sapiens) (UniProt P54803); assay: A Novel Cell-Based Assay to Identify Small Molecules for B -Galactocerebrosidase; conditions: 145M-Twi-hGALC-G270D cells (Twitcher mouse brain line with human GALC G270D), HMU-beta-Gal fluorescence, 48 h; series mostly up to 57.5 µM; activation: at the top concentration; note: 0% is about no effect; nearly all actives have a fitted effect of over 65% in size
How it was run: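 Fluorogenic HMU-b-Gal hydrolysis (0.1 mM final, pH 5.2 citrate-phosphate with 1 mg/mL sodium taurocholate; carbonate stop buffer) measures mutant GALC activity after compound treatment of live 145M-Twi Twitcher brain cells stably carrying human GALC-G270D, with wild-type GALC line alongside; activation sought.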

Chain of UniProt P54803 (P54803 whole entry, looked up): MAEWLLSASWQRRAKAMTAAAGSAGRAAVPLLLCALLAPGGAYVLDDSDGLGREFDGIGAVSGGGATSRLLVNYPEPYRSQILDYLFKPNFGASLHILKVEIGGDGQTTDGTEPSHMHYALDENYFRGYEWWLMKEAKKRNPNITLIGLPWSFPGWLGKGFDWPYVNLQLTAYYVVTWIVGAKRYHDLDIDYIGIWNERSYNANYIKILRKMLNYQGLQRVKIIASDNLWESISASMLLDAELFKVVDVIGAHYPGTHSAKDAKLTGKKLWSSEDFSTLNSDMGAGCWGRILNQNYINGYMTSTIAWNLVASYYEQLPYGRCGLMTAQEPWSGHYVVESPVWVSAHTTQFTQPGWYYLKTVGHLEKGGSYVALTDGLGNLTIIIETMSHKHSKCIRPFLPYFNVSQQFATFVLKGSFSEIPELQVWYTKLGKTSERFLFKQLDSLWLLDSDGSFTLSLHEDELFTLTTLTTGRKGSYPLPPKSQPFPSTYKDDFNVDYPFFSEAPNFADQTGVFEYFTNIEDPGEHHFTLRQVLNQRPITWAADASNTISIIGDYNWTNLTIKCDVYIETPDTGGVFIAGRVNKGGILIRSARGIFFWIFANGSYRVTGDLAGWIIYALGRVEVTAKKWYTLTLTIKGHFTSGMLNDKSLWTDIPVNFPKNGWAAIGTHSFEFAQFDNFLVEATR

activation, inactive:
Cc1ccc(CSc2cn(CC(=O)N3CCCC3)c3ccccc23)cc1 -12.7%
CCn1c(=O)sc2cc(NS(=O)(=O)c3ccc(F)c(C)c3)ccc21 -24.1%
CN(C(=O)c1cc2nc(-c3ccco3)cc(C(F)(F)F)n2n1)c1ccc(OC(F)(F)Cl)cc1 3.64%
O=C(Nc1cc(-c2nc3ccccc3o2)ccc1Cl)c1ccc(N2CCCCC2)c([N+](=O)[O-])c1 -6.11%
COC(=O)c1ccccc1NC(=O)CSc1nc2ccccc2nc1Cc1ccccc1OC -3.74%
CCOC(=O)c1c(-c2ccc(Br)cc2)csc1NC(=O)c1ccc(F)cc1 -11.9%
COc1ccc(C2c3c(n(C)c4ccccc34)C(=O)N2CC(=O)Nc2ccc(C)c(Cl)c2)cc1 (stereo unspecified) 15.7%
Cc1ccc(NC(=O)Cn2cc(S(=O)(=O)c3ccc(C)cc3)c(=O)c3cc4c(cc32)OCO4)cc1 0.462%
Cc1ccc(-c2nc(SCCOc3ccccc3C)n3[nH]c(=O)cc3n2)cc1 -15.4%
COc1ccc(CCN2CCC(Nc3nc4ccccc4n3Cc3ccc(F)cc3)CC2)cc1 -6.66%
CCN(Cc1ccncc1)C(=O)C(CO)c1ccccc1 (stereo unspecified) -4.98%
CN(C)CCOC1=Cc2ccccc2Sc2ccc(Cl)cc21 -16.2%
Cc1ccccc1C(=O)Nc1ccc(OCc2cc(=O)n3cccc(C)c3n2)cc1 -13.2%
COc1ccc(NC(=O)Nc2nnc(C)s2)cc1 -6.58%
O=c1c2oc3ccccc3c2n(Cc2ccc(Cl)cc2)c(=O)n1Cc1ccco1 -14.5%
O=C1COc2cc(S(=O)(=O)NCc3ccco3)c(Cl)cc2N1 -9.89%
CC1=C(c2ccc(C)c(C)c2)S(=O)(=O)N=C1N1CCC(C(=O)N2CCC(C(N)=O)CC2)CC1 -12%
CCOC(=O)C1CCN(c2nc3c(S(=O)(=O)c4ccccc4)nnn3c3ccsc23)CC1 -14.1%
CCc1ccccc1N(CC)C(=O)c1c(C)oc2ncnc(N3CCOCC3)c12 -6.2%
Cc1cccc(CN2CCC(CNC(=O)c3c(C)oc4ncnc(N5CCCCC5)c34)CC2)c1 -19.7%
CC(Sc1nc(=O)cc(N)n1CCc1ccccc1)C(=O)Nc1ccc(Cl)cc1 (stereo unspecified) -28.1%
CCN(C(=O)C1CCC(CNS(=O)(=O)c2cccc3nsnc23)CC1)c1ccc(C)c(C)c1 (stereo unspecified) -16.2%
Cc1cc(C)cc(OCC(=O)N(Cc2cccs2)c2ccc(Cl)cc2)c1 -14.9%
Cc1cc(-c2ccc(C)c(S(=O)(=O)NCc3cccc(Br)c3)c2)on1 -9.02%
CCCS(=O)(=O)N1CC(=O)N(c2cccc(Cl)c2C)C(C)(C(=O)NC2CCCC2)C1 (stereo unspecified) -13.9%
CCCCCn1c(CCNC(=O)c2ccc(F)cc2)nc2ccccc21 -11.9%
CCC(Oc1ccccc1)C(=O)Nc1cc(-c2cccc(C)c2)nn1-c1ccccc1 (stereo unspecified) -3.53%
COc1ccc(-n2c(C)c(C(C)=O)c3cc(OC(=O)COc4ccccc4)ccc32)cc1 -22.9%
COc1ccc(-n2nc(C(=O)N3CCN(c4cccc(C)c4C)CC3)c3c4ccccc4n(C)c3c2=O)cc1Cl -5.07%
COc1cccc(CNC(=O)Cn2ncn3nc(-c4cccs4)cc3c2=O)c1OC -9.76%
Cc1ccc(CNC(=O)Cc2c(C)c3c(cc(C)c4c(C)coc43)oc2=O)cc1 3.05%
Fc1ccc(-c2nn(-c3ccccc3Cl)c3c2cnc2ccccc23)cc1 -6.01%
Cc1ccc2onc(CC(=O)N3CCN(c4cc(Cl)ccc4C)CC3)c2c1 -12.7%
CC(NC(=O)c1ccc2c(c1)CCN2S(=O)(=O)c1ccccc1)c1ccccc1 (stereo unspecified) -3.32%
Fc1ccccc1Cc1cn2cc(-c3ccc(Cl)cc3)nc2s1 -9.85%
CCC(=O)N1CCCc2cc(S(=O)(=O)N3CCC(C(=O)NC4CCCCC4)CC3)ccc21 -15%
COc1ccccc1Cn1c(CNS(=O)(=O)c2ccc(C(C)C)cc2)nc2cccnc21 5.2%
O=C(c1ccc2c(c1)N(Cc1ccc(F)cc1)C(=O)c1ccccc1S2(=O)=O)N1CCCC1 -15.2%
COc1ccc(CNC(=O)c2nc(SCc3ccccc3F)ncc2Cl)cc1 -8.54%
COc1ccccc1NC(=O)c1oc2ccccc2c1NC(=O)c1cccc(OC)c1OC -23.8%
Cc1cccc(/C=C(\C#N)c2nc3ccccc3c(=O)[nH]2)c1 -3.7%
COc1cc(NC(=O)CCS(=O)(=O)c2ccc3c(c2)CC(=O)N3C)cc(OC)c1OC 1.12%
CCOc1ccc(-c2cc(C(=O)Oc3ccc(C#N)cc3)no2)cc1 5.83%
CCOC(=O)C1CCC(CN(Cc2ccccc2)S(=O)(=O)c2ccc(Br)cc2)CC1 (stereo unspecified) 1.84%
CCCN1Cc2cccc(C(=O)Nc3ccc(C(C)=O)cc3)c2C1=O 11.3%
COc1ccc(N2CCN(CCCNC(=O)c3cc(Nc4ccc(OC)cc4OC)nc4ccccc34)CC2)cc1 -4.55%
O=C(CCS(=O)(=O)c1ccccc1)N(Cc1cccnc1)c1nc2ccc(Cl)cc2s1 -14.7%
O=C(CN1C(=O)COc2ccccc21)NCCc1ccc(Cl)cc1 -9.12%
CCOc1ccc(N(CC)S(=O)(=O)N2CCCC(C(=O)Nc3ccc(C(C)=O)cc3)C2)cc1 (stereo unspecified) -18%
COc1cccc(C(=O)c2c(N)c(-c3nc(-c4ccccc4)cs3)c3ccccn23)c1 -12.5%
Cc1cccc(-n2c(=O)c3c(c4cc(C)ccc4n3C)n(CC(=O)N3CCCC3)c2=O)c1 2.22%
CCc1ccc(NC(=O)CN2C(=O)C(c3ccc(Cl)cc3)=NC23CCCCC3)cc1 -6.5%
CCOc1ccccc1NC(=O)c1nc(SC(C)C)ncc1Cl -8.67%
Cc1c(CNC2CCCCC2)c(C(=O)O)c(C)n1Cc1cccc(Cl)c1 -16.2%
Cc1cccc(C)c1OCCCn1c(CCNC(=O)C2CCCCC2)nc2ccccc21 -24.2%
Cc1ccc(NC(=O)Cn2c(=O)n(Cc3nc(C)no3)c(=O)c3ccccc32)c(Cl)c1 -13.8%
Cc1c(C(=O)Nc2cccc(Cl)c2)sc2nc3n(c(=O)c12)N=C(c1cccc(Br)c1)CS3 -13.1%
Cc1ccc(CNC(=O)c2ccc(NC(=O)N3CCSc4ncccc43)cc2)cc1 8.82%
CCc1ccc(-n2c(=O)c3c4c(sc3n(CC(=O)N3CCCCC3CC)c2=O)CCC4)cc1 (stereo unspecified) -5.3%
CCOC(=O)c1cc(-c2ccc(OC)cc2)n(CCC(=O)NCc2ccc(OC)cc2)c1C -12.7%
Cc1ccc(C)c(NC(=O)CN(C)S(=O)(=O)c2ccc3c(c2)CCC(=O)N3)c1 -7.17%
